PubChem BioAssay (NCATS)
This list was built around the results that the source calls inconclusive (neither active nor inactive); the mix of calls is not that of the screen. Activity calls are given as the source filed them. The call rests on the fitted dose curve; in most records, active means well fitted curve in either direction with a large enough effect (not every such curve was filed as active); inconclusive means small, poorly fitted or top-dose-only effect, or another doubt; inactive means flat fitted curve, though single readings scatter.

Assay: NFAT Signaling Pathway (AID 444);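 further: carbachol stimulus at about its EC50 of 1 µM final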
Conditions: Jurkat NFAT-bla M1, carbachol, beta-lactamase ratio, 5 h; at 17.2 µM (top of the series) unless noted
Summary of the method: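 Jurkat cells carrying an NFAT-driven β-lactamase reporter and co-transfected muscarinic M1 receptor were treated with compound plus carbachol (1 uM final, an EC50 level) for 5 h at 37 °C. CCF4 loading followed for 1 h at RT; 460/530 nm ratio gave %activity.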
On the % scale 0 is the no-effect control and ±100 the full control effect.

Compound | activity change, negative = inhibition
Nc1nc(-c2cc(-c3cccc4ccccc34)nc(N)n2)cc(-c2cccc3ccccc23)n1 | inactive: 3.93% [at 7.69 µM]
COc1cc(-c2nn3c(-c4cccnc4)nnc3s2)cc(OC)c1OC | inconclusive: -59.7% [inhibitor]
CC(=O)C1=C(O)C(=O)N(Cc2cccnc2)C1c1ccccc1Cl (stereo unspecified) | inactive: 3.26%
C[C@H](CCC(=O)O)[C@H]1CC[C@@H]2[C@H]3CC[C@H]4C[C@H](O)CC[C@@]4(C)[C@@H]3CC[C@@]21C | inconclusive: -32.8% [inhibitor] [at 7.69 µM]
Cn1c(Cl)cnc1C1CC(=O)c2cc(Cl)ccc2O1 (stereo unspecified) | inconclusive: -78% [inhibitor]
CCOc1ccc(N=C(NC#N)SCC(=O)NC2CC2)cc1 | inactive: -22.1%
CCCOc1ccc(C(C)=O)cc1CSCCC#N | inconclusive: -57.5% [inhibitor]
CC(C)=C[C@H]1[C@@H](COC(=O)c2cc3c(cc2Cl)OCO3)C1(C)C | inactive: 1.43% [at 7.69 µM]
Cc1nn2cnc3sc4c(c3c2nc1=O)CCCC4 | inconclusive: -35.4% [inhibitor]
COc1ccccc1N(O)C1CC(=O)N(c2ccc(Br)cc2)C1=O (stereo unspecified) | inactive: -6.72%
O=C1C2CC=C(Cl)CC2C(=O)N1CNc1ccccn1 (stereo unspecified) | inactive: -12.9%
CCOC(=O)N1CCN(C(=O)c2cn(CC)c3cc(N4CCN(C)CC4)c(F)cc3c2=O)CC1 | inactive: 7.68%
C=CCOn1c(=O)c(-c2cc3ccccc3o2)[n+]([O-])c2ccccc21 | inconclusive: -52.6% [inhibitor]
O=C(Nc1ccccn1)c1ccc(=O)[nH]n1 | inactive: 0.366%
COc1ccc(/C(O)=C2\C(=O)C(=O)N(CCN(C)C)C2c2cccc(OC)c2OC)cc1 (stereo unspecified) | inactive: -5.32%
CCN(CC)CCCn1c(C)cc2c(c1=O)C(c1cccc(Cl)c1)C(C#N)=C(N)O2 (stereo unspecified) | inconclusive: -70.7% [inhibitor]
O=C(NCc1ccco1)c1ccc(=O)[nH]n1 | inactive: -1.91%
Cc1noc(C)c1C(=O)N1CCC2(CC1)CN(C(=O)Nc1cccc(F)c1)C2 | inactive: 19.9% [at 7.69 µM]

Compound | activity change, negative = inhibition
c1ccc2c[n+](CCCC[n+]3ccc4ccccc4c3)ccc2c1 | inconclusive: -41% [inhibitor] [at 7.69 µM]
CN1CCN(CC(=O)Nc2nc(-c3ccccc3)cs2)CC1 | inconclusive: -76.9% [inhibitor]
CN(Cc1cccc2ccccc12)Cc1cccc2ccccc12 | inconclusive: -56.3% [inhibitor] [at 7.69 µM]
c1nc(NCCN2CCOCC2)c2cc(-c3ccoc3)ccc2n1 | inactive: -0.57% [at 7.69 µM]
Cc1ccc(S(=O)(=O)/C(C#N)=C/c2c(N3CCN(C)CC3)nc3c(C)cccn3c2=O)cc1 | inconclusive: -52.7% [inhibitor]
CCOc1ccc2c(C)nc(NC3=NC(C)(C)C=C(C)N3)nc2c1 | inconclusive: -40.9% [inhibitor]
Cn1c(=O)c2c(nc(SCCN3CCCCC3)n2Cc2ccc(Cl)cc2)n(C)c1=O | inconclusive: -73% [inhibitor]
C=CCOc1ccc(/C(O)=C2\C(=O)C(=O)N(CCN(C)C)C2c2cccs2)cc1 (stereo unspecified) | inconclusive: 9.3% [inhibitor]
Cc1noc(COc2ccccc2OCC(O)CNC(C)(C)C)n1 (stereo unspecified) | inactive: -1.96%
COc1ccccc1CCn1c(=O)c(-c2ccc(Cl)cc2)nc2cncnc21 | inconclusive: -39.7% [inhibitor] [at 7.69 µM]
Cc1ccc(-c2nn(C)c(=O)c3ccccc23)cc1CNC(=O)CSc1nc2ccccc2o1 | inactive: -12.2%
CN1CC2(C)CN(C(c3ccccc3)c3ccccc3)CC(C)(C1)C2O (stereo unspecified) | inconclusive: -55.4% [inhibitor]
COCC(=O)N1CCC2(CC1)CCN(c1ccccc1)CC2 | inactive: 15.9% [at 7.69 µM]
COc1ccc(/C=N/n2cncn2)cc1CSc1ccccn1 | inconclusive: -46% [inhibitor]
C=CCN=C(NC#N)SCCc1ccccc1 | inactive: 7.9%
O=C(CSc1nnc(-c2ccccc2)c(-c2ccccc2)n1)N1CCOCC1 | inactive: 0.00472%
Cc1ccsc1C1NC(=O)c2c(sc3c2CCCC3)N1 (stereo unspecified) | inconclusive: -91.9% [inhibitor]
Nc1ccn([C@H]2CC[C@H](CO)O2)c(=O)n1 | inactive: 5.71% [at 38 µM]
